{"source": "the supplement of paper PMC3334620", "note": "Whole data set: some 33,000 sequences, median “E-score (-0.5 to 0.5)” near -0.054, cut for the highest 2% near 0.39. Some of the results follow."}
{"biological_target": "Ylr278c (UniProt Q05854)", "experiment": "PBM E-score (8-mer binding enrichment) (E-score (-0.5 to 0.5)); higher = stronger / more preferred TF binding; most listed sequences are background and not binding sites", "details": "protein concentration: 200 nM; construct: GST-DNA-binding domain", "method_in_brief": "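Detection of bound protein used fluorescent anti-GST, with scans normalised by masliner. The proteins were GST-tagged yeast transcription factors applied at about 100-200 nM to universal all-10-mer Agilent arrays made double-stranded by primer extension. Each ungapped eight-base word, pooled with its reverse complement, was scored with an E-score from the Universal PBM Analysis Suite.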"}
{"sequence": "GGGCGAAC", "PBM E-score": 0.0496}
{"sequence": "GTCGGTTA", "PBM E-score": 0.0468}
{"sequence": "CGGAGAGA", "PBM E-score": 0.402}
{"sequence": "CAGGATGG", "PBM E-score": -0.121}
{"sequence": "AGGCGAAA", "PBM E-score": -0.149}
{"sequence": "TAGCGATA", "PBM E-score": -0.13}
{"sequence": "AACCATGA", "PBM E-score": -0.00684}
{"sequence": "CAGGTTAC", "PBM E-score": -0.0975}
{"sequence": "AATGCATT", "PBM E-score": -0.0548}
{"sequence": "ATCCAACG", "PBM E-score": -0.126}
{"sequence": "GACGGGAC", "PBM E-score": 0.102}
{"sequence": "GAATCCAA", "PBM E-score": 0.138}
{"sequence": "AAGGAAAC", "PBM E-score": -0.0183}
{"sequence": "ACCCAGTG", "PBM E-score": -0.167}
{"sequence": "ACACACTA", "PBM E-score": -0.13}
{"sequence": "TAGCCTCA", "PBM E-score": -0.182}
{"sequence": "CTCAATCC", "PBM E-score": 0.0483}
{"sequence": "GGCGACTA", "PBM E-score": -0.0576}
{"sequence": "ACGCCAGC", "PBM E-score": -0.219}
{"sequence": "ATTTTACA", "PBM E-score": -0.181}
{"sequence": "CTCCCCTA", "PBM E-score": 0.117}
{"sequence": "CGCTTGCA", "PBM E-score": 0.113}
{"sequence": "CGCCGCAG", "PBM E-score": 0.264}
{"sequence": "ATGGGCCC", "PBM E-score": 0.135}
{"sequence": "CAACGGAC", "PBM E-score": 0.312}
{"sequence": "CTTCGTGC", "PBM E-score": -0.199}
{"sequence": "AGGGCGTC", "PBM E-score": 0.205}
{"sequence": "TCCCGACA", "PBM E-score": 0.249}
{"sequence": "AGACTTCA", "PBM E-score": -0.353}
{"sequence": "AATAAGAA", "PBM E-score": 0.0408}
{"sequence": "AAAGAATA", "PBM E-score": -0.135}
{"sequence": "GTCCTCTA", "PBM E-score": -0.303}
{"sequence": "AATTGGTA", "PBM E-score": -0.0558}
{"sequence": "CCATTAGC", "PBM E-score": -0.1}
{"sequence": "CGATTCAG", "PBM E-score": 0.043}
{"sequence": "GCTGTCTA", "PBM E-score": -0.154}
{"sequence": "AAGAGTCT", "PBM E-score": -0.107}
{"sequence": "CAAGGTCG", "PBM E-score": -0.0351}
{"sequence": "CGAGTTAA", "PBM E-score": 0.0748}
{"sequence": "CACTGAAG", "PBM E-score": 0.00425}
{"sequence": "CGGGCCTC", "PBM E-score": 0.197}
{"sequence": "AAAACACC", "PBM E-score": 0.142}
{"sequence": "ACGACAAA", "PBM E-score": 0.0515}
{"sequence": "CTTCAGCC", "PBM E-score": -0.257}
{"sequence": "ACGTAGCG", "PBM E-score": -0.127}
{"sequence": "TACCACAA", "PBM E-score": -0.101}
{"sequence": "AGCAGGCA", "PBM E-score": -0.167}
{"sequence": "AGTCGATC", "PBM E-score": 0.0408}
{"sequence": "TCCTAACA", "PBM E-score": -0.252}
{"sequence": "AAGTGAAG", "PBM E-score": -0.211}
{"sequence": "AAACGGCT", "PBM E-score": -0.0745}
{"sequence": "ATGGAGTG", "PBM E-score": -0.0888}
{"sequence": "ACTATCAT", "PBM E-score": 0.0132}
{"sequence": "AGGTTAGA", "PBM E-score": -0.0535}
{"sequence": "AGTTCACA", "PBM E-score": -0.134}
{"sequence": "TCAATCAA", "PBM E-score": -0.0345}
{"sequence": "CGTGCCTA", "PBM E-score": -0.2}
{"sequence": "CTCAGGCC", "PBM E-score": -0.121}
{"sequence": "ATCCCCCC", "PBM E-score": -0.298}
{"sequence": "ACCGCAAC", "PBM E-score": 0.236}
{"sequence": "CGTATATC", "PBM E-score": -0.0562}
{"sequence": "CGCCAGGC", "PBM E-score": 0.183}
{"sequence": "CTTTTCCA", "PBM E-score": -0.058}
{"sequence": "AGTACTCG", "PBM E-score": 0.0441}
{"sequence": "ACTCCGCT", "PBM E-score": 0.417}
{"sequence": "GCGTTATA", "PBM E-score": -0.147}
{"sequence": "GACTCCCA", "PBM E-score": -0.189}
{"sequence": "TACGTGCA", "PBM E-score": -0.068}
{"sequence": "CACATCAA", "PBM E-score": 0.0124}
{"sequence": "GGGTCGTA", "PBM E-score": -0.088}
{"sequence": "GACACGAA", "PBM E-score": -0.0323}
{"sequence": "AGCTCTAG", "PBM E-score": -0.138}
{"sequence": "GAATCAAC", "PBM E-score": 0.0316}
{"sequence": "CATGGGTC", "PBM E-score": -0.226}
{"sequence": "CCTTGAAG", "PBM E-score": -0.141}
{"sequence": "ACCCCATA", "PBM E-score": 0.082}
{"sequence": "AGAAGGAT", "PBM E-score": -0.269}
{"sequence": "ACAGTCCC", "PBM E-score": 0.127}
{"sequence": "TAGGGGAA", "PBM E-score": -0.264}
{"sequence": "GCATGCAC", "PBM E-score": -0.222}
{"sequence": "CCGAATCA", "PBM E-score": 0.177}
{"sequence": "GCCATTAA", "PBM E-score": -0.0731}
{"sequence": "ATCGTGAG", "PBM E-score": -0.00596}
{"sequence": "CGCGTCAA", "PBM E-score": -0.0645}
{"sequence": "ATACTAAA", "PBM E-score": 0.114}
{"sequence": "AGCCAAAC", "PBM E-score": 0.0822}
{"sequence": "CGAATCTC", "PBM E-score": 0.179}
{"sequence": "CTGCGTCC", "PBM E-score": -0.101}
{"sequence": "CAATCGGG", "PBM E-score": 0.219}
{"sequence": "GGCTTTAA", "PBM E-score": -0.0819}
{"sequence": "GAGATCTC", "PBM E-score": 0.162}
{"sequence": "ATCCTGTA", "PBM E-score": -0.236}
{"sequence": "AGCAAATG", "PBM E-score": -0.26}
{"sequence": "TAGAGACA", "PBM E-score": -0.175}
{"sequence": "GGCATTAC", "PBM E-score": 0.208}
{"sequence": "AGATGAGC", "PBM E-score": -0.243}
{"sequence": "TATGTAGA", "PBM E-score": -0.121}
{"sequence": "CCGAGCTA", "PBM E-score": 0.197}
{"sequence": "CACGAGGA", "PBM E-score": -0.193}
{"sequence": "CATGCAAG", "PBM E-score": -0.0348}
{"sequence": "ATGGTGGC", "PBM E-score": -0.152}
{"sequence": "GGAACGGA", "PBM E-score": 0.398}
{"sequence": "AAAAGTGA", "PBM E-score": -0.035}
{"sequence": "GAGTCATA", "PBM E-score": -0.0333}
{"sequence": "ATATTTAC", "PBM E-score": 0.104}
{"sequence": "GCACGCAA", "PBM E-score": -0.0636}
{"sequence": "CGCCTAGC", "PBM E-score": -0.105}
{"sequence": "CGCCTACA", "PBM E-score": -0.0496}
{"sequence": "AGTAACAA", "PBM E-score": -0.0481}
